# Data from PubChem BioAssay AID445 (National Center for Advancing Translational Sciences (NCATS), 2006).
# Hit rate of the full screen: of about 110,000 compounds, about 40 (0.04%) were called active. This list was built around the results that the source calls inconclusive (neither active nor inactive); the mix of calls is not that of the screen. Calls follow the shape of the dose curve; as a rule, active = well fitted curve in the direction sought with a large enough effect in the signal ratio (not every such curve was filed as active); inconclusive = small, poorly fitted or top-dose-only effect, or a change in a side signal; inactive = flat fitted curve, though single readings scatter; the % refers to the signal ratio. Potencies of inconclusive entries are doubtful fits and often do not repeat.
# Assay: IkB Signaling;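 as to IkBa stabilization activation: 0% = basal untreated cells and 100% = reference inhibitor full response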
# Conditions: ABC-DLBCL IkBa-CBG/CBR dual luciferase ratio (green luciferase fused to IkBa over red control in OCI-Ly3 lymphoma cells), 4 h; IkBa stabilization activation: at 57.1 µM (top of the series), scaled: untreated 0%, proteasome inhibitor 100% unless noted
# Method in brief: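 In this assay, an IκBα–CBG68 fusion accumulates when IKK-driven degradation is blocked; native CBR normalizes for cell number. OCI-Ly3 cells were treated 4 h with compound and doxycycline, then green and red light read after Chroma-Glo addition.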
# Potency is read from the fitted curve at half-maximal effect.
SMILES,IkBa stabilization activation,Potency
Cc1ccc(CNC(=O)Nc2cc(C(=O)NCc3ccc(C(C)C)cc3)ccc2N2CCCC2)cc1,inconclusive: 1.66% [signal inhibitor],–
COc1ccccc1C(=O)N1c2ncnn2C2(CCCCC2)[C@@H]2CCCC[C@@H]21,inconclusive: 2.79% [signal inhibitor],–
CCn1c(=O)cc(SCC(=O)NCc2cccc(Cl)c2)c2ccccc21,inconclusive: 4.71% [signal inhibitor],–
CCN1C(=O)c2ccccc2Sc2ccc(NC(=O)N3CCN(c4cc(C)ccc4C)CC3)cc21,inactive,–
Cc1nc(SCC(=O)NCc2ccco2)c2oc3ccccc3c2n1,inactive,–
CCSc1nnc(NC(=O)CSc2nc3c(c(=O)n2C)SC(C)C3)s1 (configuration not stated),inactive,–
CSc1nc(Nc2ccc(F)cc2)cc(-c2ccccc2)n1,inconclusive: -3.15% [signal inhibitor],–
CCOc1ccc(-c2nn(-c3ccccc3)cc2C2NC(=O)NC(C)=C2C(=O)OC(C)C)cc1 (configuration not stated),inconclusive: 10.8% [signal inhibitor],–
COc1ccccc1NC(=O)CSc1nncn2c1cc1sccc12,inconclusive: 2.07% [signal inhibitor],–
CSc1nc(N(CCO)CCO)c2sc3nc(-c4ccco4)c4c(c3c2n1)CCC4,inconclusive: 1.07% [signal inhibitor],–
Cc1ccccc1CNC(=O)c1ccc2nc(SCc3ccc(F)cc3)n(C)c2c1,inactive,–
CCOCCCNC(=O)C(c1ccccc1)N(Cc1ccc2c(c1)OCO2)C(=O)c1ccc(NC(C)=O)cc1 (configuration not stated),inconclusive: -2.59% [signal inhibitor],–
CCC(=O)C1=C(c2ccc(F)cc2)N(C(=O)CC)n2cnnc2S1,–,"inconclusive: 31.6 µM [rising, single point]"
Cc1ccccc1CN1C(=O)c2ccccc2S(=O)c2ccc(C(=O)NCc3ccc(Cl)cc3)cc21 (configuration not stated),inconclusive: 1.68% [signal inhibitor],–
COc1ccc(CNc2nc(-c3cccnc3)nn2C(=O)c2ccco2)cc1,inactive,–
O=C(NCc1ccc2c(c1)OCO2)c1ccc2c(c1)N(Cc1ccccc1F)C(=O)c1ccccc1S2,inconclusive: 6.91% [signal inhibitor],–
CCN(C(=O)Cn1c(=O)n(-c2ccccc2)c(=O)c2ccc(C(=O)NCc3ccc4c(c3)OCO4)cc21)c1cccc(C)c1,inconclusive: 5.91% [signal inhibitor],–
C=CCNC(=O)c1cc(-c2ccc(Br)cc2)on1,inconclusive: 3.52% [signal inhibitor],–
O=C(CCSc1nc2ccccc2o1)N1CCOCC1,–,"inconclusive: 3.16 µM [signal inhibitor, full curve]"
Cc1cc(C)cc(OCC(=O)Nc2c(C(=O)c3ccccc3)oc3ccccc23)c1,inactive,–
CCC(=O)N1c2ccccc2CC1C(=O)NCc1cc(OC)ccc1OC (configuration not stated),inconclusive: -0.0797% [signal inhibitor],–

SMILES,IkBa stabilization activation,Potency
O=C(Nc1ccc2c(c1)OCCO2)c1ccc2nccnc2c1,inconclusive: 13.4% [signal inhibitor],–
C[C@@H](NC(=O)/C(C#N)=C/c1ccc(O)c(O)c1)c1ccccc1,inactive,–
CC(C)c1ccc(NC(=O)c2cc(S(=O)(=O)N(C)C3CCCCC3)ccc2F)cc1,inconclusive: -4.8% [signal inhibitor],–
O=C(O)c1ccncc1.O=C(O)c1ccncc1.[NH2-].[NH2-].[Pt],"inactive: 0.7% [at 11.4 µM, scaled: untreated 0%, proteasome inhibitor 100%]",–
CCCCn1cnc2cc(NCc3ccc(OCC)cc3)ccc21,inconclusive: 5.95% [signal inhibitor],–
CCOc1ccc(NC(=O)c2cc(S(=O)(=O)N3CCc4ccccc43)ccc2F)cc1,–,"inconclusive: 3.98 µM [signal inhibitor, full curve, poor fit]"
Cc1ccc2c(=O)cc(C(=O)Nc3ccc(S(=O)(=O)Nc4onc(C)c4C)cc3)oc2c1C,inconclusive: 1.99% [signal inhibitor],–
Brc1ccccc1-c1nc(-c2ccccc2)no1,inactive,–
O=C(CSc1oc(-c2ccccc2)nc1S(=O)(=O)c1ccc(Cl)cc1)c1ccccc1,–,"inconclusive: 20 µM [signal inhibitor, partial curve]"
Cc1ccc(-n2cc(C(=O)Oc3ccc(F)cc3)c3ccccc3c2=O)cc1,inconclusive: 1.64% [signal inhibitor],–
O=C(CC1C(=O)N(c2ccc(F)cc2)C(=O)N1Cc1ccc2c(c1)OCO2)Nc1ccc(Cl)cc1 (configuration not stated),inconclusive: 0.576% [signal inhibitor],–
CC(C)=CC(=O)N1CCCc2ccccc21,inactive,–
O=C(CSc1nc2ccccc2[nH]1)Nc1cc(C(F)(F)F)ccc1N1CCOCC1,inconclusive: 4.27% [signal inhibitor],–
Cc1cc(C)nc(-n2nc(C)c3c2N(Cc2ccccc2)C(=O)CC3c2ccc(Cl)cc2)n1 (configuration not stated),inconclusive: 1.44% [signal inhibitor],–
COc1cccc(Cn2c(=O)c(-c3ccccc3)nc3cnc(N(C)C)nc32)c1,"inactive: -1.07% [at 11.4 µM, scaled: untreated 0%, proteasome inhibitor 100%]",–
NC(=O)c1c(NC(=O)CS(=O)(=O)c2ccc(Cl)cc2)sc2c1CCCCC2,inconclusive: 2.13% [signal inhibitor],–
Cc1ccc(Nc2c(-c3ccc(Br)o3)nc3ccccn23)cc1,inconclusive: 5.48% [signal inhibitor],–
COc1ccc(-c2cc(C(N)=O)nc(N3CCCCCC3)n2)cc1,–,"inconclusive: 15.8 µM [signal inhibitor, partial curve]"
CCC(=O)Oc1c(Sc2ccc(Cl)cc2)c(C)nn1-c1ccccc1,inconclusive: 17.3% [signal inhibitor],–
Cc1ccc(Cl)cc1N1CCN(C(=O)Cn2ncc3c4ccccc4n(C)c3c2=O)CC1,inconclusive: 1.55% [signal inhibitor],–
O=C(NCCCN1CCN(c2cccc(Cl)c2)CC1)c1sc2ncccc2c1-n1cccc1,inconclusive: 1.63% [signal inhibitor],–
